Drawing on PMC3084854, this text covers binding for four substances.

Amino acid sequences for entries named in this document (tags omitted). A change or cut given only in a name is not applied to a line headed by its entry.
UniProt Q15672: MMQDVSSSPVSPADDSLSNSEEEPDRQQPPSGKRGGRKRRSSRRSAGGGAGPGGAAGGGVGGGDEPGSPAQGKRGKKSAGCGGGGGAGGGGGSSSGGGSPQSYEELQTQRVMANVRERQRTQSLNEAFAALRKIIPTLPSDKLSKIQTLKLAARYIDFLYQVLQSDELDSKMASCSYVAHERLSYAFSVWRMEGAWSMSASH
UniProt P68400: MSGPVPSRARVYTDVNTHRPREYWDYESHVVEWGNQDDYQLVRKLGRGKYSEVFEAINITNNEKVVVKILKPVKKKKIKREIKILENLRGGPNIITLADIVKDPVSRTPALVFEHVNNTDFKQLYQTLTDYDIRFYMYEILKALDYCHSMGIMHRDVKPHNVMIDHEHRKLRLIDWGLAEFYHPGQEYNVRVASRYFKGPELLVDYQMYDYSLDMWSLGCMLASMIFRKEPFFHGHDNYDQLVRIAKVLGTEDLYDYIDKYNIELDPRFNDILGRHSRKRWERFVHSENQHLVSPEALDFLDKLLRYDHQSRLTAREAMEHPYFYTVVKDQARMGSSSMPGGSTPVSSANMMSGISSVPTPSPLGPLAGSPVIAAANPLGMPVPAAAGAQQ

Results are given in words; binding and its absence hold for the method and conditions named. Binding seen in cells or lysates may run through a third protein. Some entries that bind do so weakly or less than the wild type.

Experiment [1] has as its target wild-type Myc-Twist (HEK 293T, transient) (human (by the printed RefSeq NM_000474; not said in words)) (UniProt Q15672). The experiment can be described thus: co-IP; lysates of HEK 293T cells transfected with both WT Myc-Twist and CK2α; immunoprecipitation with Myc antibody or with CK2α antibody, western blot; nonspecific IgG as control.
The target of experiment [2] is CK2α (catalytic subunit of casein kinase 2), overexpressed in HEK 293T (human (by the printed RefSeq NM_001895; not said in words)) (UniProt P68400). Described as above.
For experiment [3], the target named is endogenous CK2α in FaDu SCCHN cells (human (endogenous in FaDu)) (UniProt P68400). The experiment can be described thus: co-IP; FaDu cell lysate, endogenous proteins; immunoprecipitation with anti-CK2α antibody, western blot for Twist. In general terms: A western blot detects proteins with antibodies after separation by electrophoresis.
In experiment [4] the target is wild-type Myc-Twist stably expressed in HN31 SCCHN cells (human (by the printed RefSeq NM_000474; not said in words)) (UniProt Q15672). The experiment can be described thus: co-IP; lysates of HN31 cells stably expressing Myc-Twist; immunoprecipitation with Myc antibody, western blot for endogenous CK2α; also after IL-6 (20 ng/ml, 20 min), which increased the co-precipitated CK2α.

For experiment [5] the target is unchanged. The experiment can be described thus: condition: only cells pretreated with tocilizumab (50 ng/ml, 45 min) to block IL-6 signaling; co-IP; lysates of HN31 cells stably expressing Myc-Twist, pretreated with the anti-IL-6 receptor antibody tocilizumab (50 ng/ml, 45 min); immunoprecipitation with Myc antibody, western blot for endogenous CK2α.

“CK2α (catalytic subunit of casein kinase 2), overexpressed in HEK 293T (from UniProt P68400-1 1-391) (enzyme)”: the binding entry in experiment [1] is listed as “binds”.
“wild-type Myc-Twist (HEK 293T, transient) (from UniProt Q15672 1-202)”: the binding entry in experiment [2] is recorded as “binds”.
For the substance “endogenous Twist in FaDu SCCHN cells (from UniProt Q15672 1-202)”, the binding result in experiment [3] was “binds”.
As for “endogenous CK2α in HN31 Myc-Twist SCCHN cells (from UniProt P68400 1-391) (enzyme)”, the binding entry in experiment [4] was “binds”; in experiment [5], “no binding”.
